Experimental data published in the supplement of paper PMC4996465.
Viability of KB3-1 and Nalm-6 cells after 48 h of drug alone (CellTiter-Glo), 11 doses over about 4.5 log units. % of DMSO wells, lower = more cell loss; AC50 from the fitted curve, lower = more potent. No active / inactive call. Nalm-6 was screened in two runs. AC50 is listed only for well-fitted inhibitory curves. KB3-1 is a HeLa-derived carcinoma line, Nalm-6 a B-cell precursor leukaemia line.

Experiments:
Nalm-6 [1] = experiment: log AC50 of viability decrease (48 h) (log10 M); higher = less potent
Description: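 Eleven-dose screen of the NCATS MIPE 3 library on cells without co-treatment; CellTiter-Glo after 48 h. AC50 from the curve fit; only inhibitory curves of the better fit classes are listed.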

KB3-1 = experiment: viability (% of DMSO control); higher = more viable cells
Description: (§1)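 Eleven-dose screen of the NCATS MIPE 3 library on cells without co-treatment; CellTiter-Glo after 48 h, as % of DMSO wells.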

Nalm-6 [2] = experiment: as above
Description: as §1

Row | SMILES | log AC50 of viability decrease (Nalm-6 [1]; run: 1) | log AC50 of viability decrease (Nalm-6 [1]; run: 2) | viability (KB3-1; 0.00078 µM) [%] | viability (KB3-1; 0.00234 µM) [%] | viability (KB3-1; 0.00702 µM) [%] | viability (KB3-1; 0.0211 µM) [%] | viability (KB3-1; 0.0632 µM) [%] | viability (KB3-1; 0.19 µM) [%] | viability (KB3-1; 0.569 µM) [%] | viability (KB3-1; 1.71 µM) [%] | viability (KB3-1; 5.12 µM) [%] | viability (KB3-1; 15.4 µM) [%] | viability (KB3-1; 46.1 µM) [%] | viability (Nalm-6 [2]; run: 1, 0.00078 µM) [%] | viability (Nalm-6 [2]; run: 1, 0.00234 µM) [%] | viability (Nalm-6 [2]; run: 1, 0.00702 µM) [%] | viability (Nalm-6 [2]; run: 1, 0.0211 µM) [%] | viability (Nalm-6 [2]; run: 1, 0.0632 µM) [%] | viability (Nalm-6 [2]; run: 1, 0.19 µM) [%] | viability (Nalm-6 [2]; run: 1, 0.569 µM) [%] | viability (Nalm-6 [2]; run: 1, 1.71 µM) [%] | viability (Nalm-6 [2]; run: 1, 5.12 µM) [%] | viability (Nalm-6 [2]; run: 1, 15.4 µM) [%] | viability (Nalm-6 [2]; run: 1, 46.1 µM) [%] | viability (Nalm-6 [2]; run: 2, 0.00078 µM) [%] | viability (Nalm-6 [2]; run: 2, 0.00234 µM) [%] | viability (Nalm-6 [2]; run: 2, 0.00702 µM) [%] | viability (Nalm-6 [2]; run: 2, 0.0211 µM) [%] | viability (Nalm-6 [2]; run: 2, 0.0632 µM) [%] | viability (Nalm-6 [2]; run: 2, 0.19 µM) [%] | viability (Nalm-6 [2]; run: 2, 0.569 µM) [%] | viability (Nalm-6 [2]; run: 2, 1.71 µM) [%] | viability (Nalm-6 [2]; run: 2, 5.12 µM) [%] | viability (Nalm-6 [2]; run: 2, 15.4 µM) [%] | viability (Nalm-6 [2]; run: 2, 46.1 µM) [%]
1 | CCOc1cc(/C=C2/C(=O)N(c3ccccc3)N=C2C)cc(Cl)c1OCC(=O)OC | -4.58 | -4.73 | 100 | 98.8 | 101 | 111 | 107 | 105 | 103 | 101 | 102 | 100 | 107 | 118 | 116 | 115 | 127 | 117 | 116 | 114 | 117 | 106 | 104 | 15 | 108 | 109 | 108 | 111 | 106 | 114 | 109 | 111 | 102 | 92.8 | 55.3
2 | Clc1ccc2ncc(-c3cccc(NC4CNC4)n3)n2c1 | -4.83 | -4.68 | 91.8 | 95.1 | 95.6 | 89.2 | 97.4 | 94.2 | 91.8 | 99.7 | 99.4 | 92.9 | 30.2 | 107 | 101 | 107 | 109 | 114 | 114 | 98.4 | 99.9 | 87.1 | 47.3 | 7.64 | 106 | 109 | 108 | 111 | 105 | 103 | 105 | 102 | 84.2 | 82 | 11.9
3 | Cc1ccc(-n2nc(C(C)(C)C)cc2NC(=O)Nc2ccc(OCCN3CCOCC3)c3ccccc23)cc1 [Doramapimod] | -4.73 | -4.98 | 102 | 106 | 93.9 | 100 | 99.4 | 100 | 106 | 102 | 103 | 105 | 88.9 | 113 | 117 | 115 | 108 | 104 | 108 | 112 | 97.9 | 92.5 | 88.9 | 55.5 | 107 | 110 | 107 | 100 | 105 | 103 | 104 | 99.8 | 103 | 61.9 | 52.7
4 | Cc1csc(NC(=O)c2sc3nc4c(c(C(F)(F)F)c3c2N)CCC4)n1 [Irestatin 9389] | -4.68 |  | 106 | 111 | 108 | 109 | 105 | 106 | 105 | 109 | 101 | 105 | 67.2 | 112 | 112 | 114 | 106 | 113 | 110 | 110 | 114 | 105 | 96.6 | 46 | 106 | 110 | 102 | 107 | 104 | 101 | 98.6 | 101 | 33.2 | 83.1 | 20.3
5 | CC/C(=C(\c1ccccc1)c1ccc(OCCN(C)C)cc1)c1ccccc1 [Tamoxifen] | -4.68 | -4.63 | 108 | 107 | 106 | 104 | 106 | 108 | 103 | 101 | 89.4 | 96.7 | 2.37 | 121 | 125 | 122 | 122 | 118 | 128 | 126 | 115 | 103 | 94.3 | -2.23 | 106 | 108 | 111 | 111 | 107 | 109 | 110 | 97.5 | 103 | 90.3 | -1.27
